# Data as given in PubChem BioAssay AID485297 (National Center for Advancing Translational Sciences (NCATS), 2010).
# The campaign covered roughly 320,000 compounds. About 9,100 (2.8%) were called active. Inconclusive results, whose numbers are uncertain, are shown with a selection of clear calls. Calls follow the shape of the dose curve; as a rule, active = well fitted activation curve with a large enough effect; inconclusive = small, poorly fitted or top-dose-only effect; inactive = no such curve, though single readings can be large or run the other way. No potency is given beside an inconclusive call; the fits are too rough.
# Experiment: qHTS Assay for Rab9 Promoter Activators; also: nearly all actives have a fitted effect of over 60% in size
# Conditions: Huh7 Rab9 promoter-luciferase reporter, luminescence, 24 h; series mostly up to 9.22 µM
# Source text: NIH Chemical Genomics Center [NCGC] NIH Molecular Libraries Probe Production centers Network [MLPCN] MLPCN Grant: MH089537-01 Assay Submitter (PI): Yiannis A. Ioannou NCGC Assay Overview: Niemann Pick Type C (NPC) is a rare neurodegenerative lipidosis that is characterized by lipid storage in the endosomal/lysosomal system. Treatment modalities for this devastating disease are currently non-existent due to the severe obstacles associated with accessing the central nervous system with proteins or genes (Ioannou, 2000). We have developed a new paradigm, termed "Orphan Receptor Bypass Therapy" (ORByT), to address these disorders. This paradigm posits the existence of endogenous "suppressor" proteins whose expression can dramatically improve LSD pathogenesis. The goal is the identification/discovery of small chemical compounds that can modulate the expression of these proteins and provide a new treatment modality for these devastating disorders. One such protein whose overexpression reverses aspects of the NPC phenotype is Rab9. We have developed and optimized a cell based luciferase reporter assay in 1536 well format for the identification of up-regulators of the Rab9 promoter.
# The Rab9 promoter is cloned in front of the luciferase reporter gene, therefore […] promoter activation results in luciferase expression. Frozen stock of the Rab9 promoter transfected Huh7 cells were obtained from the laboratory of Dr. Yiannis Ioannou (The Mount Sinai School of Medicine, New York, NY). Cells were propagated and maintained at NCGC in medium containing RPMI-1640 supplemented with 10% FBS, 2mM L-glutamine, and 50ug/ml penicillin/streptomycin. Cells were harvested in and plated for assays in OP-MEM I reduced-serum medium supplemented with 10% FBS. The Amplite luciferase reporter gene assay kit was purchased from ABD Bioquest and prepared/stored according to manufacturers recommendations. qHTS Assay Setup: 1.Dispensed 5ul of Huh7 cells stably expressing Rab9-luciferase at a density of 1500 cells per well 1536-well plates. 2.Incubate cells at 37C, 5% CO2, and 95% humidity for 2 hours. 3.Transferred 23nl per well of compound in DMSO solution. 4.Incubated at 37C, 5% CO2, and 95% humidity for 24 hours. 5.Dispensed 3ul per well of Amplite reagent(ABD Bioquest) per well. 6.Incubate at ambient for 10 minutes. 7.Read using the luminescence protocol on the ViewLux plate reader (Perkin Elmer).
# Potency is read from the fitted curve at half-maximal effect; tags tell the direction and shape of the fitted curve.
row,Structure (SMILES),Potency
1,CC(C)/C=C1\CC/C(=C\c2ccc(N(C)C)cc2)C1=O,"inconclusive [activator, single point]"
2,N#Cc1nc(/C=C/c2ccccc2)oc1NCCCN1CCOCC1,"inconclusive [activator, partial curve]"
3,Cc1nc(C(C)N(C)Cc2nc(-c3ccc4c(c3)OCO4)no2)c(C)s1 (stereo unspecified),"inconclusive [activator, single point]"
4,O=C(Nc1ccc(/C=C/c2nc3ccccc3o2)cc1)c1ccc(F)cc1,"inconclusive [activator, partial curve]"
5,O=C(c1ccc2nc(N3CCOCC3)sc2c1)N1CCN(C(=O)c2ccco2)CC1,inactive
6,Cc1cc(C)n2nc(SCCOc3ccccc3F)nc2n1,"inconclusive [activator, partial curve]"
7,COc1cccc(C2(O)CC(C(F)(F)F)=NN2C(=O)c2ccccn2)c1 (stereo unspecified),"inconclusive [activator, single point]"
8,COc1ccc(/C=N/NC(N)=S)cc1OC(=O)c1cccc2ccccc12,inactive
9,COc1ccccc1C(=O)NNC(=O)c1cccc(Br)c1,"inconclusive [activator, single point]"
10,Cc1ccc(N2C(=O)S/C(=C/c3cn(C)c4ccccc34)C2=O)cc1,"inconclusive [activator, single point]"
11,COC(=O)N1N=C(c2ccccc2)CC1(O)C(F)(F)F (stereo unspecified),"inconclusive [activator, single point]"
12,CCN(CC)CC(=O)Nc1ccc2c(c1)Nc1ccccc1CC2,"inconclusive [activator, partial curve]"
13,CC(=O)Cn1nnc2sc(-c3ccccc3)cc2c1=O,"inconclusive [activator, partial curve]"
14,c1ccc(-c2nc(-c3nccc4ccccc34)oc2-c2ccccc2)cc1,active: 3.16 µM
15,COCCC1CCCCN1C(=O)c1ccc2nc(Cc3ccccc3F)oc2c1 (stereo unspecified),active: 2.82 µM
16,O=C1CC(C(=O)NC2CCCCC2)C2(CCCCC2)O1 (stereo unspecified),inactive
17,O=C(COC(=O)/C=C/c1ccco1)Nc1ncc(Cl)cc1Cl,inactive
18,CC(=O)Oc1ccc(Oc2ccc(-c3noc(C)n3)cc2)cc1,"inconclusive [activator, full curve]"
19,O=C(NCCOc1ccccc1)c1ccccc1Cl,active: 0.447 µM
20,Cc1ccc(SCc2nc3ccccc3n2CC(=O)Nc2ccc(Cl)cc2)cc1,inactive
21,N#Cc1ccccc1NC(=O)c1cc(=O)c2ccccc2o1,"inconclusive [activator, partial curve]"
22,NC(=O)C1CC(=O)N(c2ccc(OCc3ccccc3Cl)cc2)C1 (stereo unspecified),"inconclusive [activator, single point]"
23,O=C(Nc1cc(Cl)cc(Cl)c1)c1cccc(OC(F)F)c1,"inconclusive [activator, single point]"
24,CC(=O)N=c1sc2c3ccccc3ccc2n1C,"inconclusive [activator, partial curve, poor fit]"
25,COc1ccccc1-c1cc(C(=O)NCc2ccco2)no1,inactive
26,Cc1ccc(C2(C)NC(=O)N(CC(=O)N(C)CC(=O)Nc3cccc4ccccc34)C2=O)cc1 (stereo unspecified),inactive

row,Structure (SMILES),Potency
1,COC(=O)C1CCN(C(=O)c2ccc3nc(-c4cccc(OC)c4)oc3c2)CC1,active: 2 µM
2,Cc1cc(C(=O)Nc2nc(C)c(C(=O)N(C)C)s2)ccc1[N+](=O)[O-],active: 0.447 µM
3,CC(=O)Oc1ccc(Cl)cc1/C=C/c1ccc2ccccc2n1,"inconclusive [activator, single point]"
4,CCOc1ccc2nc(NC(=O)NC3CCCCC3)sc2c1,"inconclusive [activator, partial curve]"
5,CCOC(=O)N/N=C/c1cc(C)n(-c2ccccc2)c1C,"inconclusive [activator, single point]"
6,O=[n+]1c2c(n([O-])c3ccccc31)CCCC2,inactive
7,CC1CCN(C(=O)COC(=O)c2cc(=O)[nH]c3ccccc23)CC1,active: 2.51 µM
8,O=C(Nc1ccc(F)cc1F)c1cc2n(n1)C(C(F)(F)F)C1CCCCC1N2 (stereo unspecified),"inconclusive [activator, single point]"
9,Cc1cc(C)nc(NC(=O)/C=C/c2ccccc2Cl)n1,"inconclusive [activator, single point]"
10,COc1ccc2cc(-c3csc(-c4cccnc4)n3)ccc2c1,"inconclusive [activator, partial curve]"
11,CCN(CC)CCCNC(=O)/C=C/C(=O)O,inactive
12,O=C(Nc1ccccc1)C1COc2ccccc2O1 (stereo unspecified),inactive
13,O=C(CSc1ccccc1)Nc1ccc2c(c1)OCO2,"inconclusive [activator, single point]"
14,CC(C)(C)c1ccc(OCc2ccc(C(=O)N3CCOCC3)o2)cc1,"inconclusive [activator, partial curve]"
15,O=C1N=C(N2CCCCC2)SC1=C1CCCC1,"inconclusive [activator, single point]"
16,CCCn1nnc(NC(=O)c2cc3ccccc3o2)n1,"inconclusive [activator, single point]"
17,COc1ccccc1NC(=O)c1c(O)c2ccccc2[nH]c1=O,"inconclusive [activator, single point]"
18,CNc1ccc([N+](=O)[O-])cc1-c1nc2ccccc2[nH]c1=O,inactive
19,CN(C)S(=O)(=O)c1ccc2nnn(OCC(=O)NC34CC5CC(CC(C5)C3)C4)c2c1,"inconclusive [activator, single point]"
20,O=C(/C=C/Nc1ccc(F)cc1)c1ccc(Oc2ncccn2)cc1,"inconclusive [activator, single point]"
21,Cc1ccsc1/C=C1\SC(=S)N(CC2CCCO2)C1=O (stereo unspecified),"inconclusive [activator, single point]"
22,COc1cc(SC)ccc1C(=O)Nc1nccs1,active: 0.562 µM
23,Cc1cc(N)n2nc(-c3ccccc3)c(-c3ccccc3)c2n1,inactive
24,O=[N+]([O-])c1ccc(-c2cnc3ccccc3n2)cc1,"inconclusive [activator, partial curve]"
25,Cc1ccc(NC(=O)CCC(=O)NNC(=O)C(c2ccccc2)c2ccccc2)c(C)c1,inactive
26,O=C(CCNS(=O)(=O)c1ccccc1)N1CCN(C(c2ccccc2)c2ccccc2)CC1,inactive

row,Structure (SMILES),Potency
1,Oc1ccc(-c2nccc(-c3ccc(F)cc3)n2)cc1,"inconclusive [activator, single point]"
2,O=C(CSc1ccc2ccccc2n1)c1ccccc1,"inconclusive [activator, partial curve]"
3,O=C(Nc1ccc2c(c1)OCO2)c1noc2c1CCCCC2,active: 0.447 µM
4,FC(F)(F)c1ccc(Sc2n[nH]c(C(F)(F)F)n2)nc1,"inconclusive [activator, single point]"
5,Cc1ccc(-c2csc(N=C(N)N)n2)cc1,"inconclusive [activator, partial curve]"
6,NC(=O)c1c(NC(=O)c2ccccc2Cl)sc2c1CCC2,"inconclusive [activator, partial curve]"
7,Nc1n[nH]c(N)c1N=Nc1ccc(Cl)cc1Cl,inactive
8,Cc1cccc(-c2noc(-c3cc4ccccc4oc3=O)n2)c1,active: 2.82 µM
9,CCN(CC)S(=O)(=O)c1cc(C(=O)NC2CCCCC2)ccc1C,active: 3.98 µM
10,CC(C)CC(=O)N1CCN(c2ccc(NC(=O)c3ccco3)cc2)CC1,active: 3.16 µM
11,COc1cccc(Nc2ccc(N3CCCCC3)cc2)c1OC,active: 2.82 µM
12,CCN(CC)S(=O)(=O)c1cc(C(=O)Oc2cccc(-c3cnc4ccccc4n3)c2)ccc1Br,"inconclusive [activator, single point]"
13,CC(NC(=O)Nc1ccc(F)cc1F)c1ccc2c(c1)OCO2 (stereo unspecified),inactive
14,O=C(CNc1ccccc1C(=O)O)c1ccccc1,"inconclusive [activator, single point]"
15,N#C/C(=C\c1ccc(N2CCCC2)c([N+](=O)[O-])c1)c1nc2ccccc2[nH]1,"inconclusive [activator, partial curve]"
16,CCc1ccc(NC(=O)Nc2ccsc2C(=O)OC)cc1,"inconclusive [activator, partial curve]"
17,COCc1cc(C)nc2sc(C(=O)Nc3nccs3)c(N)c12,"inconclusive [activator, single point]"
18,CCCC(=O)Nc1ccc(NC(=O)c2ccccc2F)cn1,"inconclusive [activator, partial curve]"
19,CCn1c(CC(=O)Nc2ccc(F)cc2)nnc1SCC(=O)Nc1nncs1,inactive
20,O=C(Nc1ccccc1Cl)c1cccc(COc2cc(Cl)ccc2Cl)c1,active: 3.98 µM
21,COc1cc(CNCCCSc2nnnn2C)cc(Br)c1OC,inactive
22,CCOC(=O)Nc1nc(-c2ccc(F)cc2F)cs1,"inconclusive [activator, single point]"
23,O=C(Nc1ccc(N2CCOCC2)c(Cl)c1)c1ccc([N+](=O)[O-])o1,"inconclusive [activator, partial curve]"
24,C/C(=N\NC(=O)CSc1nc(C)[nH]c1[N+](=O)[O-])c1ccc(F)cc1,"inconclusive [activator, partial curve]"
